In a collection of fitness landscapes (doi:10.1126/science.1257360):
The other results are listed elsewhere or left out.

B1: PhoQ; a variant is named by its letters at X, in order, P23837 (parent)
chain: MKKLLRLFFPLSLRVRFLLATAAVVLVLSLAYGMVALIGYSVSFDKTTFRLLRGESNLFYTLAKWENNKLHVELPENIDKQSPTMTLIYDENGQLLWAQRDVPWLMKMIQPDWLKSNGFHEIEADVNDTSLLLSGDHSIQQQLQEVREDDDDAEMTHSVAVNVYPATSRMPKLTIVVVDTIPVELKSSYMVWSWFIYVLSANLLLVIPLLWVAAWWSLRPIEALAKEVRELEEHNRELLNPATTRELTSLVRNLNRLLKSERERYDKYRTTLTDLTHSLKTPLXXLQXXLRSLRSEKMSVSDAEPVMLEQISRISQQIGYYLHRASMRGGTLLSRELHPVAPLLDNLTSALNKVYQRKGVNISLDISPEISFVGEQNDFVEVMGNVLDNACKYCLEFVEISARQTDEHLYIVVEDDGPGIPLSKREVIFDRGQRVDTLRPGQGVGLAVAREITEQYEGKIVAGESMLGGARMEVIFGRQHSAPKDE

Variants of: B1
Assay: enrichment ratio after two sorts for PhoP signalling (ratio (wild type AVST 3.29)); higher = more functional
Conditions: with PhoP (E. coli)

| Variant | enrichment ratio |
| --- | --- |
| HHAL | ≤ 0.25 |
| RPLD | ≤ 0.25 |
| DRLW | ≤ 0.25 |
| EWHC | ≤ 0.25 |
| NPNQ | ≤ 0.25 |
| RADR | ≤ 0.25 |
| EEHE | ≤ 0.25 |
| MGWL | 9.14 |
| WWFT | ≤ 0.25 |
| TYMY | ≤ 0.25 |
| REVD | ≤ 0.25 |
| LTCT | ≤ 0.25 |
| LTSC | ≤ 0.25 |
| AYMW | ≤ 0.25 |
| PLDT | ≤ 0.25 |
| GGKH | ≤ 0.25 |
| ERVL | ≤ 0.25 |
| WPMN | ≤ 0.25 |
| PEIY | ≤ 0.25 |
| NIKW | ≤ 0.25 |
| YTQC | ≤ 0.25 |
| RNIK | ≤ 0.25 |
| GVHP | ≤ 0.25 |
| DVDT | ≤ 0.25 |

| Variant | enrichment ratio |
| --- | --- |
| YSAM | ≤ 0.25 |
| YWMR | ≤ 0.25 |
| MRKG | ≤ 0.25 |
| NQMD | ≤ 0.25 |
| TRVG | ≤ 0.25 |
| HKSH | ≤ 0.25 |
| NMWW | ≤ 0.25 |
| VIRA | ≤ 0.25 |
| VYNW | ≤ 0.25 |
| ESVF | ≤ 0.25 |
| LRGL | ≤ 0.25 |
| PHAF | ≤ 0.25 |
| ARHL | ≤ 0.25 |
| QWLP | ≤ 0.25 |
| DDDI | ≤ 0.25 |
| DNGS | ≤ 0.25 |
| KRVQ | ≤ 0.25 |
| EFEI | ≤ 0.25 |
| LQLL | ≤ 0.25 |
| EALH | ≤ 0.25 |
| PHMN | ≤ 0.25 |
| YTSP | ≤ 0.25 |
| SGDV | ≤ 0.25 |
| KVQP | ≤ 0.25 |

| Variant | enrichment ratio |
| --- | --- |
| SCYM | 0.298 |
| CSRS | ≤ 0.25 |
| WLLF | ≤ 0.25 |
| FSFQ | ≤ 0.25 |
| FAEP | ≤ 0.25 |
| HDEV | ≤ 0.25 |
| TTVS | 2.04 |
| LPTN | ≤ 0.25 |
| ELDC | ≤ 0.25 |
| KRRA | ≤ 0.25 |
| SGNG | ≤ 0.25 |
| LTTI | ≤ 0.25 |
| LWGK | ≤ 0.25 |
| DWYL | ≤ 0.25 |
| PRAI | ≤ 0.25 |
| LLFY | ≤ 0.25 |
| WALT | ≤ 0.25 |
| WDIF | ≤ 0.25 |
| NMSH | ≤ 0.25 |
| MQTG | ≤ 0.25 |
| RHPQ | ≤ 0.25 |
| QIFA | ≤ 0.25 |
| SKHI | 1.15 |
| FCYS | ≤ 0.25 |

| Variant | enrichment ratio |
| --- | --- |
| HPNN | ≤ 0.25 |
| APDY | ≤ 0.25 |
| GPRK | ≤ 0.25 |
| TTGC | 8.48 |
| NCMA | ≤ 0.25 |
| LDKH | ≤ 0.25 |
| QDRE | ≤ 0.25 |
| NQNA | ≤ 0.25 |
| IYPP | ≤ 0.25 |
| FFYL | ≤ 0.25 |
| IHRN | ≤ 0.25 |
| WEYY | ≤ 0.25 |
| QNCK | ≤ 0.25 |
| FHEV | ≤ 0.25 |
| AHKD | ≤ 0.25 |
| KGCF | ≤ 0.25 |
| WRKT | ≤ 0.25 |
| WFSV | ≤ 0.25 |
| YHDW | ≤ 0.25 |
| TAEC | ≤ 0.25 |
| IVKS | ≤ 0.25 |
| TFQA | 1.16 |
| YFPG | ≤ 0.25 |
| INSE | ≤ 0.25 |

| Variant | enrichment ratio |
| --- | --- |
| LGDC | ≤ 0.25 |
| TMSW | ≤ 0.25 |
| QDDF | ≤ 0.25 |
| VTFN | ≤ 0.25 |
| SEKR | ≤ 0.25 |
| RHSL | ≤ 0.25 |
| YDHE | ≤ 0.25 |
| ETRF | ≤ 0.25 |
| MYRN | ≤ 0.25 |
| IADT | ≤ 0.25 |
| HHRD | ≤ 0.25 |
| QAVF | ≤ 0.25 |
| WNWG | ≤ 0.25 |
| FGAF | ≤ 0.25 |
| FGQK | ≤ 0.25 |
| SLPR | 0.289 |
| RYHE | ≤ 0.25 |
| FHSY | ≤ 0.25 |
| APLC | ≤ 0.25 |
| RCAF | ≤ 0.25 |
| GHHF | ≤ 0.25 |
| WPYM | ≤ 0.25 |
| YMDA | ≤ 0.25 |
| VDQI | ≤ 0.25 |

| Variant | enrichment ratio |
| --- | --- |
| PNGV | ≤ 0.25 |
| VSYW | ≤ 0.25 |
| FWPL | ≤ 0.25 |
| TRGK | ≤ 0.25 |
| HQPM | ≤ 0.25 |
| VCYH | ≤ 0.25 |
| QYTD | ≤ 0.25 |
| KQES | ≤ 0.25 |
| LSVN | ≤ 0.25 |
| YPEM | ≤ 0.25 |
| RDWS | ≤ 0.25 |
| GMVP | ≤ 0.25 |
| ILMH | ≤ 0.25 |
| DRRR | ≤ 0.25 |
| STCE | 13.1 |
| PFPE | ≤ 0.25 |
| NIVK | ≤ 0.25 |
| YAIA | ≤ 0.25 |
| GHYE | ≤ 0.25 |
| LEKS | ≤ 0.25 |
| AYKQ | ≤ 0.25 |
| SWDI | ≤ 0.25 |
| RLNH | ≤ 0.25 |
| WLFP | ≤ 0.25 |

| Variant | enrichment ratio |
| --- | --- |
| DNFN | ≤ 0.25 |
| IMYF | ≤ 0.25 |
| QLIV | ≤ 0.25 |
| RVHK | ≤ 0.25 |
| MGCM | 4.9 |
| MESV | 24.5 |
| RSPL | ≤ 0.25 |
| KMGQ | ≤ 0.25 |
| ADFK | ≤ 0.25 |
| EPGD | ≤ 0.25 |
| FSNR | ≤ 0.25 |
| NETG | ≤ 0.25 |
| VECF | ≤ 0.25 |
| VIIQ | ≤ 0.25 |
| GFWY | ≤ 0.25 |
| YLAG | ≤ 0.25 |
| SEIL | 10.1 |
| SNWY | ≤ 0.25 |
| YGWN | ≤ 0.25 |
| VCIG | ≤ 0.25 |
| VKCA | ≤ 0.25 |
| FGCG | ≤ 0.25 |
| WGKF | ≤ 0.25 |
| GWML | ≤ 0.25 |

| Variant | enrichment ratio |
| --- | --- |
| FYYV | ≤ 0.25 |
| KIAC | ≤ 0.25 |
| TVEC | 2 |
| RQQS | ≤ 0.25 |
| SMGA | ≤ 0.25 |
| NFDY | ≤ 0.25 |
| FEKH | ≤ 0.25 |
| KPIW | ≤ 0.25 |
| KVVW | ≤ 0.25 |
| IILT | ≤ 0.25 |
| LIFR | ≤ 0.25 |
| LGMT | ≤ 0.25 |
| ESQG | ≤ 0.25 |
| FIAN | ≤ 0.25 |
| RCND | ≤ 0.25 |
| YWKF | ≤ 0.25 |
| VGSA | ≤ 0.25 |
| LTSI | ≤ 0.25 |
| PPGK | ≤ 0.25 |
| WRVT | ≤ 0.25 |
| KTGA | ≤ 0.25 |
| RQNL | ≤ 0.25 |
| DHWQ | ≤ 0.25 |
| HNDS | ≤ 0.25 |

| Variant | enrichment ratio |
| --- | --- |
| HGYF | ≤ 0.25 |
| AVWM | ≤ 0.25 |
| SYQH | ≤ 0.25 |
| ERDH | ≤ 0.25 |
| PCWG | ≤ 0.25 |
| TNIC | ≤ 0.25 |
| YYYL | ≤ 0.25 |
| FAAC | ≤ 0.25 |
| MSVT | ≤ 0.25 |
| VDTW | ≤ 0.25 |
| MDEP | ≤ 0.25 |
| CSFH | ≤ 0.25 |
| RGNF | ≤ 0.25 |
| RCKF | ≤ 0.25 |
| RTFV | ≤ 0.25 |
| SGYW | ≤ 0.25 |
| GTRH | ≤ 0.25 |
| YPSR | ≤ 0.25 |
| YDMK | ≤ 0.25 |
| PAGG | ≤ 0.25 |
| STDV | ≤ 0.25 |
| WQQM | ≤ 0.25 |
| NQLA | ≤ 0.25 |
| NWKL | ≤ 0.25 |

| Variant | enrichment ratio |
| --- | --- |
| PCWC | ≤ 0.25 |
| VPQA | ≤ 0.25 |
| EFGC | ≤ 0.25 |
| LKRG | ≤ 0.25 |
| GMNG | ≤ 0.25 |
| MQEP | ≤ 0.25 |
| ILIY | ≤ 0.25 |
| ALMP | ≤ 0.25 |
| FHFN | ≤ 0.25 |
| PWLH | ≤ 0.25 |
| RKRS | ≤ 0.25 |
| MDLK | ≤ 0.25 |
| HADT | ≤ 0.25 |
| VQNV | ≤ 0.25 |
| WAFW | ≤ 0.25 |
| EGLP | ≤ 0.25 |
| DQPM | ≤ 0.25 |
| WFFY | ≤ 0.25 |
| MITM | 4.1 |
| APVI | ≤ 0.25 |
| HDRH | ≤ 0.25 |
| PDRC | ≤ 0.25 |
| PEIH | ≤ 0.25 |
| FIRP | ≤ 0.25 |

| Variant | enrichment ratio |
| --- | --- |
| PTCC | ≤ 0.25 |
| EHHF | ≤ 0.25 |
| PHTW | ≤ 0.25 |
| SDNL | ≤ 0.25 |
| HFSQ | ≤ 0.25 |
| ANVK | ≤ 0.25 |
| VQFH | ≤ 0.25 |
| WVDK | ≤ 0.25 |
| SQQQ | 7.71 |
| GIKP | ≤ 0.25 |
| RNAW | ≤ 0.25 |
| VQEL | ≤ 0.25 |
| LTCF | ≤ 0.25 |
| MHFH | ≤ 0.25 |
| MFMS | ≤ 0.25 |
| LEDS | ≤ 0.25 |
| NKKG | ≤ 0.25 |
| MCGW | ≤ 0.25 |
| VIWD | ≤ 0.25 |
| GCHS | ≤ 0.25 |
| HSMF | 2.32 |
| IGDI | ≤ 0.25 |
| KQRE | ≤ 0.25 |
| DGLA | ≤ 0.25 |

| Variant | enrichment ratio |
| --- | --- |
| GRRG | ≤ 0.25 |
| NVVC | ≤ 0.25 |
| PVPN | ≤ 0.25 |
| DQGC | ≤ 0.25 |
| FGQR | ≤ 0.25 |
| YMYK | ≤ 0.25 |
| PSIK | ≤ 0.25 |
| AYCY | ≤ 0.25 |
| FEFK | ≤ 0.25 |
| EDQP | ≤ 0.25 |
| IWDD | ≤ 0.25 |
| RAAL | ≤ 0.25 |
| YKKI | ≤ 0.25 |
| WILC | ≤ 0.25 |
| SYYL | ≤ 0.25 |
| NQKT | ≤ 0.25 |
| ILMI | ≤ 0.25 |
| IGME | ≤ 0.25 |
| CAPF | ≤ 0.25 |
| YFRY | ≤ 0.25 |
| TMCM | 10 |
| QMKK | ≤ 0.25 |
| ASTQ | 3.55 |
| YEHS | ≤ 0.25 |

| Variant | enrichment ratio |
| --- | --- |
| FCFM | ≤ 0.25 |
| NQDW | ≤ 0.25 |
| KDDC | ≤ 0.25 |
| LWNI | ≤ 0.25 |
| KMGW | ≤ 0.25 |
| SPNE | ≤ 0.25 |
| PISS | ≤ 0.25 |
| WRSQ | ≤ 0.25 |
| KDST | ≤ 0.25 |
| HSCK | ≤ 0.25 |
| YRWG | ≤ 0.25 |
| DQNR | ≤ 0.25 |
| RTTD | ≤ 0.25 |
| WTKS | ≤ 0.25 |
| IVKD | ≤ 0.25 |
| WMQP | ≤ 0.25 |
| LMKV | ≤ 0.25 |
| AGLV | 12.7 |
